These results are taken from PubChem BioAssay AID588591 (National Center for Advancing Translational Sciences (NCATS), 2011).

Screen size: about 390,000 compounds; about 4,700 (1.2%) were called active. Not shown: some 4% with an inconclusive outcome. The call rests on the fitted dose curve; in most records, active means well fitted inhibition curve with a large enough effect; inconclusive means small, poorly fitted or top-dose-only effect, or another doubt; inactive means no such curve, though single readings can be large or run the other way. The list shows a part of the results, in another mix than the full data. Some structures have more than one record in an assay (separate samples or runs), and their calls can disagree.
On the % scale 0 is the no-effect control and ±100 the full control effect; potency means the concentration at half of the fitted maximal effect.

UniProt Q9Y253, sequence (Q9Y253 whole entry, looked up): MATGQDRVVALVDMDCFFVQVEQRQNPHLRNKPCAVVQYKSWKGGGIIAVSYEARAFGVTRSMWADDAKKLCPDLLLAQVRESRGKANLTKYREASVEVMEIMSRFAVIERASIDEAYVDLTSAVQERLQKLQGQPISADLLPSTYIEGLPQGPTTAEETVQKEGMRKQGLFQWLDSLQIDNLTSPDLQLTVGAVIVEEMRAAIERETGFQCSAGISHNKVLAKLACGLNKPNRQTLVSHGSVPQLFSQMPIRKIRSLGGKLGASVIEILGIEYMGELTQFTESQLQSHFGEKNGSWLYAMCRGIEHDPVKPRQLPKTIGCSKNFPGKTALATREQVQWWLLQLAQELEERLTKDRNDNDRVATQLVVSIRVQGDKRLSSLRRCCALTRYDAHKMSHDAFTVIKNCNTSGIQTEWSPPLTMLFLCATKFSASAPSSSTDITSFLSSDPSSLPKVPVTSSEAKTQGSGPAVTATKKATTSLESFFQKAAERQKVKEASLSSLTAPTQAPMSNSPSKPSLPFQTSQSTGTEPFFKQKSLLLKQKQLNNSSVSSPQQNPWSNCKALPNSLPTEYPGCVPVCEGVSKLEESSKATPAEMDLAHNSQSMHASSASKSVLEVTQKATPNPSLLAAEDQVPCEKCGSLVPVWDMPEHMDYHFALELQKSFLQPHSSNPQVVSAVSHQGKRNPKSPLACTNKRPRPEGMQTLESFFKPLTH

For this assay, the target named is DNA polymerase eta (Homo sapiens) (UniProt Q9Y253). The assay can be described thus: qHTS for Inhibitors of Polymerase Eta. Conditions: recombinant Pol eta, fluorescent DNA replication assay; series mostly up to 114 µM; activity change, negative = inhibition: at the top concentration. An excerpt:
The Y-family of DNA polymerases, such as Pol eta, are specifically involved in DNA repair. Pol eta copies undamaged DNA with a lower fidelity than other DNA-directed polymerases. However, it accurately replicates UV-damaged DNA; when thymine dimers are present, this polymerase inserts the complementary nucleotides in the newly synthesized DNA, thereby bypassing the lesion and suppressing the mutagenic effect of UV-induced DNA damage. […] Thus, while pol eta's (and most likely iota's) normal function is to protect humans against the deleterious consequences of DNA damage, under certain conditions they can have deleterious effects on human health. As a consequence, we propose to utilize a high throughput replication assay to identify small molecule inhibitors of pol eta. In a collaboration between the National Institute of Child Health & Human Development (NICHD) and NIH Chemical Genomics Center, a high-throughput, fluorescent screen was developed to screen the NIH Molecular Libraries Small Molecule Repository (MLSMR). This screen is used to identify inhibitors of pol eta. NIH Chemical Genomics Center [NCGC] NIH Molecular Libraries Probe Centers Network [MLPCN] MLPCN Grant: MH090825 Assay Submitter (PI): Roger Woodgate, NICHD)
Three microliters of reagents (buffer in column 3 and 4 as negative control and 10 nM Pol eta in columns 1, 2, and 5-48) were dispensed into a 1,536-well black solid-bottomed plate. Compounds (23 nL) were transferred via Kalypsys pin tool equipped with 1536-pin array. The plates were then incubated for 15 min at room temperature, and 1 µL substrate (50 nM final concentration) was added to start the reaction and kinetically read twice at 0 min and 10 min on the Viewlux reader
For orientation: Quantitative high-throughput screening tests each substance at several concentrations.
As to `CC1=C(/C=C/C(C)=C/C=C/C(C)=C\C(=O)O)C(C)(C)CCC1`, the “activity change, negative = inhibition” value is inactive: -4.81%. Consider `CC(/C=C1\SC(=S)N(C(C(=O)O)c2ccccc2)C1=O)=C\c1ccccc1` (configuration not stated), for which the Potency is active: 89.1 µM. Regarding `C/C(=C\c1ccc(C(=O)O)cc1)c1ccc2c(c1)C(C)(C)CCC2(C)C`, the “activity change, negative = inhibition” value is inactive: -5.95%.

For the compound `CCc1ccc(CNCc2ccc(OCC(O)CN(C)Cc3ccccc3)cc2)nc1` (configuration not stated), the “activity change, negative = inhibition” value is inactive: 32.2%. Turning to `CC(/C=C/c1ccccc1)=N\Nc1nc2c(c(=O)[nH]c(=O)n2C)n1CCO`, the “activity change, negative = inhibition” value is inactive: 36.1%. As for `COC/C=C/C1=CC2=CC(=O)C(C)(OC(=O)c3cnc4ccccc4n3)C(=O)C2=CN1Cc1ccc(OC)cc1` (configuration not stated), the Potency was active: 28.2 µM. Turning to `COc1ccc(OCc2nc(N)nc(Nc3ccccc3)n2)cc1`, the “activity change, negative = inhibition” value was inactive: 4.36%. For the compound `O=C(C1=C[C@H](c2ccc(C(F)(F)F)cc2)C[C@H](OCCCCO)O1)N1CCN(Cc2ccccc2)CC1`, the “activity change, negative = inhibition” value is inactive: -23.1%. Consider `COC(=O)c1ccccc1NC(=O)c1cc2ncc(Br)cn2n1`, for which the Potency was active: 7.08 µM. For the compound `CCOc1ccccc1CNCCNC(=O)c1nonc1N`, the “activity change, negative = inhibition” value is inactive: -7.67%. On the same count and under the same terms, then `N#C/C(=C\c1ccc(O)c(O)c1)C(=O)NCc1ccccc1`, with inactive: -24.4%.

`CCOc1ccc(-n2ccnc2SCC(=O)Nc2nc3ccc(C)cc3s2)cc1`: the Potency was active: 89.1 µM. For `C/C(=N\NC(=O)c1cc(-c2cccc([N+](=O)[O-])c2)n[nH]1)c1ccccc1O`, the Potency is active: 8.91 µM. With `Cc1ccc(N(C(=O)C2CCC(=O)N2)C2(C(=O)NC3CCCCC3)CCCCC2)cc1` (configuration not stated), the “activity change, negative = inhibition” value was inactive: 6.22%. Same read-out and setting: the same measure for `C[C@H]1CN([C@@H](C)CO)C(=O)CCCn2nncc2CO[C@H]1CN(C)C(=O)Nc1cccc(Oc2ccccn2)c1`: inactive: -4.2%.

For `CC(=O)Nc1ccc(NC(=O)Cc2ccc(S(=O)(=O)N3CCCCC3)s2)cc1`, the Potency is active: 12.6 µM. In the case of `CN=c1scc(C)n1/N=C/c1ccc(O)c(O)c1O`, the Potency was active: 3.55 µM. In the case of `Cc1ccc(NC(=O)CCCn2c(=O)c3cccn3c3cccnc32)c(Cl)c1`, the “activity change, negative = inhibition” value was inactive: 19.7%. As to `CCc1nnc(NC(=O)c2sc3nc4c(cc3c2N)CCCCCC4)s1`, the Potency is active: 39.8 µM.

As to `CC(=O)C(=Cc1ccc(C(=O)O)cc1)C(C)=O`, the Potency was active: 39.8 µM.

As to `Cc1ccc(-c2nn(CCC(=O)O)cc2/C=C\C(=O)c2ccc(Br)cc2)cc1`, the Potency was active: 79.4 µM. Consider `CSc1ccc(/C=C(/NC(=O)c2ccc(C)cc2)C(=O)Nc2cccc(C)c2)cc1`, for which the “activity change, negative = inhibition” value was inactive: 5.76%.

Regarding `C=CCOC(=O)C1=C(C)NC(SCC(=O)OCC)=C(C#N)C1c1ccc(C)cc1` (configuration not stated), the Potency was active: 17.8 µM. On to `Cc1ccc(S(=O)(=O)N2CCCCC2)cc1NC(=O)Cn1ncc(Cl)c(Cl)c1=O`, for which the Potency is active: 56.2 µM.

In the case of `Cc1cc(C)nc(NS(=O)(=O)c2ccc(N/C=C\C(=O)c3ccc(Cl)cc3)cc2)n1`, the “activity change, negative = inhibition” value was inactive: -18.1%. For `O=C(NCCO)C(=O)c1c(-c2ccc(Cl)cc2)cc2ccccn12`, the “activity change, negative = inhibition” value is inactive: -19%. On to `CSc1cccc(NC(=O)/C=C/c2ccco2)c1`, for which the Potency was active: 79.4 µM. For `Cc1ccc(C)c(NC(=O)Nc2csc3c2CCCC3)c1`, the “activity change, negative = inhibition” value is inactive: 16.6%. For the compound `Cc1ccc(/C=C2\C(=O)ON=C2c2ccccc2)o1`, the “activity change, negative = inhibition” value is inactive: -4.19%.

As for `O=C1CC(=O)N(CCc2ccc(F)cc2)C(=O)N1`, the “activity change, negative = inhibition” value is inactive: -2.18%.

As for `Cn1c(=O)c(=O)n(C)c2cc(S(=O)(=O)N3CCN(c4ccc(F)cc4)CC3)ccc21`, the “activity change, negative = inhibition” value was inactive: 0.119%. On to `CCCCCCCCCCCCC/C=C/[C@@H](O)[C@@H](N)CO`, for which the “activity change, negative = inhibition” value was inactive: -16.3%.

For `Cc1cc(OCC(=O)NCCO)cc(C)c1Cl`, the “activity change, negative = inhibition” value was inactive: -1.03%. As for `Cc1ccc(C(=O)Nc2cccc(O)c2)cc1S(=O)(=O)N1CCCCCC1`, the “activity change, negative = inhibition” value is inactive: -13.2%. Consider `O=C(COc1ccc(F)cc1)Nc1nc(-c2cccnc2)cs1`, for which the Potency was active: 35.5 µM. As for `CC(C1SC(=S)NC1=O)C1SC(=S)NC1=O` (configuration not stated), the Potency is active: 5.01 µM. Take `COc1ccc(/C=N/NC(=O)Cc2n[nH]c(=O)[nH]c2=O)cc1`: the “activity change, negative = inhibition” value was inactive: 17.7%. Still for that read-out and setting: then `Cn1ccc2cc3c(cc21)CCN3C(=O)Nc1cccnc1`, with inactive: -6.31% [at 57.1 µM]; and `O=S(=O)(NCCS(=O)(=O)N1CCN(c2ccccc2)CC1)c1ccc(Br)cc1`, with inactive: 17.6%. Same read-out and setting: the same measure for `COc1ccc(CNC(=O)c2cc3c(=O)n(Cc4ccco4)ccc3nc2C)cc1`: inactive: 14.8%. For the compound `O=c1[nH]c2ccsc2c(=O)n1CCO`, the “activity change, negative = inhibition” value was inactive: 40.7%. On the same count and under the same terms, the same measure for `Cc1cccc(C(=O)NCN2CCN(c3ccccc3C#N)CC2)c1`: inactive: -15.2%; for `CCO[C@H]1OC(C(=O)N2CCN(Cc3ccc4c(c3)OCO4)CC2)=C[C@@H](c2ccc(Br)cc2)[C@@H]1CCCO`: inactive: -3.56%.

For `O=C1/C(=C/c2ccco2)SC(=S)N1c1cccnc1`, the Potency was active: 2.82 µM. `Cc1nnc(SCC2=C(C(=O)O)N3C(=O)C(NC(=O)Cn4nc(C(F)F)cc4C)C3SC2)s1` (configuration not stated): the Potency is active: 8.91 µM.

For the compound `Cc1ccnn1CC(=O)N/N=C/c1ccc([N+](=O)[O-])s1`, the “activity change, negative = inhibition” value was inactive: 22.7%. In the case of `CC1(C)CCC2=C(O1)c1ccccc1C(=O)C2=O`, the Potency is active: 22.4 µM.

As for `Cc1cc(C)n(NC(=S)NC2CCCCC2)c(=O)c1C#N`, the “activity change, negative = inhibition” value is inactive: 30.8%. Consider `Cc1cc2nc3c(nc2cc1C)C(O)=C3O`, for which the “activity change, negative = inhibition” value is inactive: 33.1%. Same read-out and setting: the same measure for `CN(C)[C@@H]1C(=O)C(C(N)=O)=C(O)[C@@]2(O)C(=O)C3=C(O)c4c(O)ccc(Cl)c4[C@@H](O)[C@H]3C[C@@H]12`: inactive: -5.65%. The same measure, in the same setting: the same measure for `COc1cc(NC(=O)c2ccc(C)cc2)ccc1NC(=O)c1cc2ccccc2o1`: inactive: -4.91%; for `C=CCN1C(=O)C(Cc2ccccc2Cl)SC1=Nc1ccc(C(=O)O)cc1` (configuration not stated): inactive: 38.8%; for `COc1cc(C(=O)O[C@H]2C/C(C)=C/CC[C@@]3(C)O[C@@H]3[C@H](O)[C@@H]2C(C)C)cc(OC)c1OC`: inactive: -17.1%. Same read-out and setting: then `Cc1ccc(N2C(=O)/C(=C/c3ccco3)SC2=S)cc1`, with inactive: -23.3%.

`O=C(/C=C/c1ccccc1)NCCc1ccccc1`: the Potency was active: 20 µM. As for `C/C(N)=C(/C#N)C(=O)CSc1nnc(Cc2ccccc2F)n1N`, the “activity change, negative = inhibition” value was inactive: 10.8%. As for `COc1ccc(N2Cc3cccc(C(=O)N4CCN(C(=O)c5ccco5)CC4)c3C2=O)cc1`, the Potency is active: 5.62 µM.

For the compound `CC(C)(C)C(=O)Nc1ccc(C(=O)NNC(=O)c2ccccc2)cc1`, the “activity change, negative = inhibition” value was inactive: 15.6%. On to `NC(=O)c1ccsc1NC(=O)COC(=O)[C@@H]1CCCN1C(=O)c1cccs1`, for which the “activity change, negative = inhibition” value was inactive: -18.4%. `COc1ccc(NC(=O)Nc2ccc(O)c3ccccc23)cc1`: the “activity change, negative = inhibition” value was inactive: 40.4%. For the compound `CCC(=O)Nc1ccc2nc3c(=O)[nH]c(=S)[nH]c3nc2c1`, the Potency was active: 17.8 µM. Regarding `Cc1nnc(N2CCCC(C(=O)Nc3cc(F)ccc3F)C2)c2nn(-c3ccccc3)c(C)c12` (configuration not stated), the “activity change, negative = inhibition” value was inactive: -7.46%.
